Experimental data taken from PubChem BioAssay AID1656 (Sanford-Burnham Center for Chemical Genomics, 2009).
The other results are listed elsewhere or left out. Shown are side measurements of this screen, not its main read-out; they come without a call. Most of these compounds were active or inconclusive in the main read-out, so they are no random draw.

Test: oleate-induced lipid droplet accumulation in AML12 cells – imaging, high-throughput imaging, BODIPY stain, primary screen (AID 1656);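 further: cells counted across two imaged fields per well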
Settings: AML12 mouse hepatocytes, oleate lipid droplets, measured here: cell count, cytotoxicity flag, at 6.5 µM
How it was run: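 Test system: AML12 hepatocytes (mouse); reagent: oleate loading, 100 µM; dosing: one dose, 6.5 µM compound; incubation: overnight exposure; signal: fluorescence imaging, 20x objective, two fields per well; read-out basis: % inhibition of corrected integrated BODIPY droplet signal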

Row | Structure (SMILES) | cell count
1 | CCOc1cc(C(=O)Nc2ccc(N3CCN(S(C)(=O)=O)CC3)cc2)cc(OCC)c1OCC | 743 cells
2 | CCC(C)N(CC(=O)Nc1cccc(C)c1C)C(=O)CCl (centres undefined) | 140 cells
3 | Cc1cc(O)c(C)c(O)c1/C=N/NC(=O)c1cccnc1 | 796 cells
4 | COc1ccc(Nc2nc(-c3c(C)nc4ncccn34)cs2)cc1 | 223 cells
5 | CC(C)Oc1ccc(C(=O)Nc2ccc(N3CCN(C(=O)c4ccco4)CC3)cc2)cc1 | 808 cells
6 | O=[N+]([O-])c1cccc(Oc2cnccn2)c1 | 226 cells
7 | O=C(Nc1ncc(Cc2ccc(SC(F)F)cc2)s1)c1ccc(OC(F)F)cc1 | 56 cells
8 | CCO[C@H]1OC(C(=O)NCc2nc3ccccc3[nH]2)=C[C@@H](C2CC2)[C@@H]1CCCO | 272 cells
9 | CCn1cc(C(=O)NCc2ccc(Cl)cc2)c(=O)c2cc(S(=O)(=O)N(C)C)ccc21 | 822 cells
10 | CC(=O)Nc1ccc(-c2csc(NC(=O)Cc3cccc(F)c3)n2)cc1 | 737 cells
11 | Cc1ccc(NC(=O)CN(C)CC(=O)Nc2ccc(N3CCOCC3)cc2)c(C)c1 | 521 cells
12 | COc1ccccc1C1=NOC(COc2ccc3c(C)cc(=O)oc3c2)C1 (centres undefined) | 208 cells
13 | COc1ccc(C(=O)OCC(=O)NC(C)CCc2ccccc2)cc1OC (centres undefined) | 808 cells
14 | CCN(CC)c1ccc(NC(=O)c2ccc3c(c2)c(C)c(C)n3C)cc1 | 664 cells
15 | CCCCCOC(=O)c1[nH]c2c(c1C)C(=O)CC(c1ccco1)C2 (centres undefined) | 135 cells
16 | CS(=O)(=O)Nc1ccc(C(=O)Nc2ccccc2C(=O)NCc2ccco2)cc1 | 693 cells
17 | Cc1cc(-n2cnnn2)cc(C)c1S(=O)(=O)NCCOc1ccccc1 | 634 cells
18 | Cc1cc(C)c(C(=O)NC2CCCc3c2cnn3-c2cccc(C)c2C)o1 (centres undefined) | 710 cells
19 | C=CCOc1ccc(-c2nc3c(c(=O)[nH]c(=O)n3Cc3ccccc3)n2CCCOC)cc1 | 742 cells
20 | CCOc1ccccc1NC(=O)C1CCN(C(=O)NCc2ccccc2)CC1 | 769 cells
21 | CCN1CCN(c2cc(C)c3cc(NC(=O)CCC(=O)Nc4ccc(OC)cc4OC)ccc3n2)CC1 | 809 cells
22 | O=C(c1cc([N+](=O)[O-])ccc1N1CCOCC1)N1CCN(c2ccccc2)CC1 | 266 cells
23 | CCOc1ccc(C(=O)OCC(=O)Nc2ccc(SC(F)F)cc2)cc1OCC | 670 cells
24 | COc1cc(-c2c(-c3cc(OC)c(OC)c(OC)c3)noc2C)ccc1F | 291 cells
25 | Cc1ccc(S(=O)(=O)NCc2ccc(C(=O)NC3CC3)cc2)cc1 | 736 cells

Row | Structure (SMILES) | cell count
26 | C=CCN(C(=O)c1csnn1)C(C(=O)NC1CCCCC1)c1ccccc1F (centres undefined) | 672 cells
27 | COc1cccc(/C=N/N2CCN(C3c4ccccc4-c4ccccc43)CC2)c1O | 718 cells
28 | CCN(CC)C(=O)CC(c1ccc(OC)cc1)c1c(OC)cc(OC)c2ccc(=O)oc12 (centres undefined) | 712 cells
29 | Cc1cc(C)cc(NC(=O)N2CCC(C(=O)c3ccc(F)cc3)CC2)c1 | 700 cells
30 | O=C(c1ccc(Cl)cc1)C1CCN(C(=O)NC2CCCCC2)CC1 | 659 cells
31 | N#CC(c1ccc(Cl)cc1)c1ccc2c(C(F)(F)F)cc(C(F)(F)F)nc2n1 (centres undefined) | 530 cells
32 | CCCCc1ccc(NC(=O)CSc2nnc(C)c(=O)n2N)cc1 | 842 cells
33 | CCCCCC(O)(c1ccc(OCC)cc1)C(CN1CCOCC1)c1ccccc1 (centres undefined) | 822 cells
34 | CCOc1ccc(CCNC(=O)COc2cc(=O)n(C)c3ccccc23)cc1OCC | 736 cells
35 | O=C(CCNC(=O)C1CCN(S(=O)(=O)c2ccccc2)CC1)NCCc1cccc(F)c1 | 680 cells
36 | CCOC(=O)C1CCC(CN(Cc2ccccc2)S(=O)(=O)c2ccc([N+](=O)[O-])cc2)CC1 (centres undefined) | 666 cells
37 | O=C1c2ccccc2-c2onc3c(Oc4ccccc4)cc(O)c1c23 | 757 cells
38 | O=C(Nc1nc(-c2cccs2)c(-c2cccs2)s1)C1CCCC1 | 610 cells
39 | CCc1ccc(C(=O)CSc2nc3cc(S(=O)(=O)N4CCOCC4)ccc3n2CC)cc1 | 598 cells
40 | COC(=O)c1ccccc1NC(=O)c1cccc(NC(=O)c2ccc(Br)o2)c1C | 729 cells
41 | COc1ccc(C(C(=O)NC(C)(C)C)N(Cc2ccco2)C(=O)CCC(=O)Nc2cc(C)on2)cc1 (centres undefined) | 735 cells
42 | COc1ccc(OC)c(NC(=O)c2cc3oc4ccccc4c3cc2O)c1 | 711 cells
43 | C[C@H](NC(=O)[C@@H]1CSC2c3ccccc3C(=O)N21)C(=O)NCCc1ccc(F)cc1 (some centres undefined) | 213 cells
44 | Cc1ccccc1OCCc1c(C)[nH]c(=S)[nH]c1=O | 261 cells
45 | CCc1ccc(OCC(=O)N/N=C(\C)c2ccc(-n3ccnc3)cc2)cc1 | 725 cells
46 | COc1cccc2sc(Nc3nc(-c4ccncc4)cs3)nc12 | 179 cells
47 | CCOc1ccccc1Nc1nnc(SC(C)C(=O)Nc2nc(-c3ccccc3)cs2)s1 (centres undefined) | 626 cells
48 | COC(=O)[C@H](Cc1c[nH]c2ccccc12)NC(=O)CCCc1c[nH]c2ccccc12 | 777 cells
49 | CCOc1ccc(CCNC(=O)Cn2cccc2C(=O)c2ccccc2C)cc1OCC | 626 cells
50 | O=C(/C=C/c1ccc(Cl)cc1)NC(=S)Nc1ccc(NC(=O)c2ccco2)cc1 | 649 cells

Row | Structure (SMILES) | cell count
51 | O=C(/C=C\c1ccco1)Nc1cc([N+](=O)[O-])ccc1F | 37 cells
52 | Cc1c(S(=O)(=O)c2ccccn2)c(N)n(Cc2ccccc2)c1C | 752 cells
53 | COc1cc(N2CCCC2)c(OC)cc1/C=C(/C#N)c1ccc(F)cc1 | 729 cells
54 | COc1ccccc1NS(=O)(=O)c1cccc(-n2c(O)c(C=Nc3ccccc3C(=O)O)c3ccccc3c2=O)c1 | 690 cells
55 | CCn1cc([N+](=O)[O-])c(C(=O)N2N=C(c3ccc4ccccc4c3)CC2c2ccccc2O)n1 (centres undefined) | 753 cells
56 | CCOC(=O)C1CCN(C(=O)C2(NC(=O)Nc3ccc(F)cc3F)CCCCC2)CC1 | 753 cells
57 | NC(=O)CC(NC(=O)Cc1cccc2ccccc12)c1ccc(N2CCN(c3ccc(F)cc3)CC2)c([N+](=O)[O-])c1 (centres undefined) | 670 cells
58 | Cc1ccc(Cn2nc(C)c(NC(=O)C3(C)CC3(Br)Br)c2C)cc1 (centres undefined) | 707 cells
59 | COc1ccc(OC)c(CNC(=O)CCCc2cn(C)c3ccccc23)c1 | 728 cells
60 | CCOc1cc(CNC(=O)CCCn2c(=O)c3cccn3c3cccnc32)cc(OCC)c1OCC | 666 cells
61 | CCn1cc(C(=O)NCCCN(CC(C)C)CC(C)C)c(=O)c2cc(S(=O)(=O)N(C)C3CCCCC3)ccc21 | 679 cells
62 | O=C(CSCC(=O)N1CCCCC1)Nc1nc(-c2ccccc2)c(-c2ccccc2)s1 | 681 cells
63 | c1ccc(-c2nc(N3CCOCC3)cc(N3CCOCC3)n2)cc1 | 620 cells
64 | Cc1ccc(N2C(N)=C(C#N)C(c3cc(CN4CCOCC4)cs3)C3=C2CC(C)(C)CC3=O)cc1 (centres undefined) | 673 cells
65 | COc1ccc(/C=C\C(=O)NCc2ccc3[nH]c(C)cc3c2)cc1OC | 753 cells
66 | CCc1cccc(C)c1NC(=S)NCc1cccn1C | 202 cells
67 | CCCCCCN(C(=O)CCCCCN1C(=O)NC(c2ccccc2)C(C(=O)OCc2ccccc2)=C1C)C(C(=O)NCCCC)c1ccc(OCC(=O)OC)c(C(=O)OC)c1 (centres undefined) | 701 cells
68 | O=C(CN1CCCC1)Nc1ccc(S(=O)(=O)N2CCCCC2)cc1 | 17 cells
69 | CCCOc1cccc(C(=O)NCCNC(=O)c2ccc(C)nc2)c1 | 715 cells
70 | Cc1ccc(C(=O)c2cc([N+](=O)[O-])ccc2N2CCCCC2)c(C)c1 | 51 cells
71 | Cc1c(Cl)sn(-c2ccc(Cl)cc2)c1=O | 334 cells
72 | COc1cc(NC(=O)c2cccs2)c(OC)cc1NC(=O)CCC(=O)Nc1ccc2ncccc2c1 | 668 cells
73 | COc1ccc(NC(=O)Cc2c(Sc3ccccc3)c3ccccc3n2C)cc1 | 711 cells
74 | CCOc1ccc(/C(O)=C2/C(=O)C(=O)N(c3ncccn3)C2c2ccccc2)cc1 (centres undefined) | 92 cells
75 | COc1ccc(CCNC(=O)Cc2cccc(C(F)(F)F)c2)cc1OC | 742 cells

Row | Structure (SMILES) | cell count
76 | Cc1nc2ccccc2nc(=O)c1NNc1ccccc1 | 790 cells
77 | N=c1scc(-c2ccccc2)n1/N=C/c1ccco1 | 616 cells
78 | O=[N+]([O-])c1ccccc1/C=C/C=N/Nc1ccc(S(=O)(=O)Nc2ccc(Cl)cc2)cc1[N+](=O)[O-] | 674 cells
79 | CCOc1ccc(NC(=O)CCSc2nc3c(c(CC)c2C#N)C(=O)CC(C)(C)C3)cc1 | 788 cells
80 | Cc1cc(OCC(=O)NC2CC2)c2c(C)cc(=O)oc2c1 | 769 cells
81 | COc1ccccc1NC1=C(N2CCCCC2)C(=O)c2ccccc2C1=O | 660 cells
82 | COc1ccc([N+](=O)[O-])cc1NC(=O)C(C)N(C)Cc1ccc(Br)cc1 (centres undefined) | 272 cells
83 | FC(F)(F)COc1nc(N2CCOCC2)nc(N(c2ccccc2)c2ccccc2)n1 | 706 cells
84 | CCOC(=O)Nc1nc(-c2ccccc2)c(C(=O)c2ccc(Cl)cc2)s1 | 268 cells
85 | COc1ccc(/C=C/C(=O)c2cc(F)ccc2OC(=O)c2ccccc2C)cc1OC | 292 cells
86 | CCC(C)(C)n1nnnc1C(c1cc2ccc(C)cc2[nH]c1=O)N(Cc1cccnc1)Cc1ccco1 (centres undefined) | 722 cells
87 | CS(=O)(=O)N(CC(=O)Nc1cccc(Br)c1)Cc1ccccc1 | 769 cells
88 | O=C(Nc1ccc2c(c1)OCO2)c1cc2ncc(Br)cn2n1 | 804 cells
89 | CCCNC1=CC(=O)CC(C)(C)C1 | 765 cells
90 | CCOc1ccccc1-c1cc(C(=O)N/N=C/c2ccc(O)c(OC)c2)c2ccccc2n1 | 711 cells
91 | COc1ccc(C(C(=O)NC(C)(C)C)N(Cc2ccc(C)cc2)C(=O)CCC(=O)Nc2cc(C)on2)cc1 (centres undefined) | 567 cells
92 | Cc1ccccc1N/C(=N/S(=O)(=O)c1ccccc1)c1ccc(F)cc1 | 662 cells
93 | COc1ccc(-n2nnnc2-c2cccc(OC)c2)cc1 | 293 cells
94 | Cc1ccc(/C=N/NC(=O)c2n[nH]c3c2CCCC3)cc1 | 87 cells
95 | Cc1ccccc1OCc1n(CC(=O)OC2CC(C)CCC2C(C)C)c2ccccc2[n+]1C (centres undefined) | 710 cells
96 | CCOc1ccc(CC(=O)Nc2ccc(NC(=O)c3ccco3)cc2)cc1OCC | 724 cells
97 | CCc1ccc(/C=N/NC(=O)c2cc(-c3ccncc3)nc3ccccc23)s1 | 239 cells
98 | CCc1ccc(NS(=O)(=O)c2cc3c(cc2C)n(C)c(=O)c(=O)n3C)cc1 | 769 cells
99 | Cc1c(C(=O)OCC(C)C)[nH]c2c1C(=O)CC(c1ccco1)C2 (centres undefined) | 268 cells
